Experimental data published in the supplement of paper PMC10369915.
Some of the results follow. Cut-off read from the data, not from the text of the source: active = 3.2 or more and inactive = the rest. Most of these values are background signal.

Assays:
Assay in all cases: enrichment score (SH2-bound / input frequency) (ratio); bacterial display of known human phosphotyrosine sites (pTyr-Var adds point mutants) read by sequencing; higher = stronger binding; tyrosines were phosphorylated by kinases first
Conditions in all cases: peptide library: pTyr-Var
[1] = molecular target: SHP2 C-SH2 domain E139D
[2] = molecular target: SHP2 C-SH2 domain wild-type
[3] = molecular target: SHP2 N-SH2 domain L43F
[4] = molecular target: SHP2 N-SH2 domain T42A
[5] = molecular target: SHP2 N-SH2 domain T52S
[6] = molecular target: SHP2 N-SH2 domain wild-type

Measured: enrichment score
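Note: displayed peptides selected on beads carrying the immobilized SH2 domain, with library peptides lacking any tyrosine serving as negative controls.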

RDWSHYFKIIE [KRT18_Y129]
inactive: [1] 1.07 | [2] 1.25 | [3] 0.741 | [4] 0.862 | [5] 0.865 | [6] 1.16

TTGGFYSYGGG [KRT24_Y120_A115T]
inactive: [1] 0.759 | [2] 0.717 | [3] 0.795 | [4] 0.862 | [5] 0.627 | [6] 0.859

DPLASYLDKVR [KRT10_Y160_R156P]
inactive: [1] 0.81 | [2] 0.791 | [3] 0.718 | [4] 0.658 | [5] 0.843 | [6] 0.73

QEIATYRRLLE [KRT14_Y415]
inactive: [1] 0.538 | [2] 0.483 | [3] 0.542 | [4] 0.464 | [5] 0.475 | [6] 0.557

GGMTEYKLVVV [KRAS_Y4]
inactive: [1] 1.26 | [2] 1.44 | [3] 1.03 | [4] 1.95 | [5] 1.16 | [6] 0.956

DRLANYLEKVR [KRT40_Y103_S102N]
inactive: [1] 0.889 | [2] 0.794 | [3] 0.802 | [4] 0.703 | [5] 0.762 | [6] 0.852

GYGGGYGGVLT [KRT19_Y65_A60G]
inactive: [1] 1.02 | [2] 0.874 | [3] 0.911 | [4] 0.819 | [5] 0.801 | [6] 0.94

WFQTKYEELQV [KRT6B_Y360_I365V_YF]
inactive: [1] 1.8 | [2] 1.57 | [3] 1.94 | [5] 2.02 | [6] 1.21
active: [4] 9.38

GGMTEYNLVVV [KRAS_Y4_K5N]
inactive: [1] 0.796 | [2] 0.924 | [3] 0.749 | [4] 0.793 | [5] 0.649 | [6] 1.15

LEIETYRRLLD [KRT12_Y429]
inactive: [1] 0.978 | [2] 0.777 | [3] 0.823 | [4] 0.873 | [5] 0.614 | [6] 0.842

DRPASYLEKVR [KRT13_Y118_L115P]
inactive: [1] 0.705 | [2] 0.709 | [3] 0.67 | [4] 0.779 | [5] 0.817 | [6] 0.737

WYQTKYEELQV [KRT6B_Y360_I365V]
inactive: [1] 1.35 | [2] 1.73 | [3] 1.71 | [5] 1.54 | [6] 1.43
active: [4] 5.59

LEVETYRRLLD [KRT12_Y429_I426V]
inactive: [1] 0.736 | [2] 0.815 | [3] 0.812 | [4] 0.678 | [5] 0.869 | [6] 0.848

KEELDYLKKNH [KRT14_Y248_A247D]
inactive: [1] 1.01 | [2] 1.18 | [3] 0.83 | [4] 0.929 | [5] 0.932 | [6] 1.09

DTLASYLDKVR [KRT12_Y139_R135T]
inactive: [1] 1.32 | [2] 0.861 | [3] 1.25 | [4] 1.19 | [5] 1.17 | [6] 1.2

EAESWYQTKFE [KRT75_Y342_YF]
inactive: [1] 1.1 | [2] 0.769 | [3] 0.826 | [4] 0.714 | [5] 0.681 | [6] 1.22

LEIETDRRLLD [KRT12_Y429_Y429D]
inactive: [1] 0.591 | [2] 0.692 | [3] 0.546 | [4] 0.497 | [5] 0.899 | [6] 0.7

DRLASYLDKAR [KRT14_Y129_V133A]
inactive: [1] 0.838 | [2] 0.957 | [3] 1.13 | [4] 0.88 | [5] 0.79 | [6] 0.871

RQNQEYEILLD [KRT39_Y379]
inactive: [1] 0.431 | [2] 0.634 | [3] 0.658 | [4] 0.732 | [5] 0.44 | [6] 0.578

QEIATYRRQLE [KRT14_Y415_L418Q]
inactive: [1] 0.82 | [2] 0.8 | [3] 0.762 | [4] 0.614 | [5] 0.495 | [6] 0.595

RLLREYQELMN [KRT75_Y434]
inactive: [1] 1.01 | [2] 1.06 | [3] 1.19 | [4] 0.951 | [5] 1.37 | [6] 1.28

DRLASSLDKVR [KRT10_Y160_Y160S]
inactive: [1] 0.88 | [2] 0.603 | [3] 0.888 | [4] 0.533 | [5] 0.69 | [6] 0.917

ASQEEYSAMRD [KRAS_Y64_G60S]
inactive: [1] 0.529 | [2] 0.781 | [3] 0.5 | [4] 0.398 | [5] 0.533 | [6] 0.579

EAEALYQTKFQ [KRT73_Y325]
inactive: [1] 0.74 | [2] 0.814 | [3] 0.748 | [4] 0.643 | [5] 0.907 | [6] 0.864

SGGSSYGSGGC [KRT1_Y532_G537C]
inactive: [1] 0.613 | [2] 0.843 | [3] 0.595 | [4] 0.515 | [5] 0.662 | [6] 0.788

KAESWYQTKYE [KRT75_Y342_E337K]
inactive: [1] 0.876 | [2] 0.707 | [3] 0.677 | [4] 0.743 | [5] 0.723 | [6] 0.822

QEIATYRRLRE [KRT17_Y384_L388R]
inactive: [1] 0.215 | [2] 0.173 | [3] 0.218 | [4] 0.21 | [5] 0.215 | [6] 0.322

ARQEEYSAMRD [KRAS_Y64_G60R]
inactive: [1] 0.65 | [2] 0.656 | [3] 0.567 | [4] 0.388 | [5] 0.598 | [6] 0.371

KEELAYLKKNH [KRT14_Y248]
inactive: [1] 0.761 | [2] 0.656 | [3] 0.563 | [4] 0.886 | [5] 0.764 | [6] 1

SSSGGYGGGFG [KRT19_Y61_A60G_YF]
inactive: [1] 0.689 | [2] 0.477 | [3] 0.714 | [4] 0.73 | [5] 0.728 | [6] 0.585

RQNQEYEILMD [KRT39_Y379_L383M]
inactive: [1] 0.832 | [2] 0.728 | [3] 0.693 | [4] 0.648 | [5] 1.26 | [6] 1.15

QEIATHRRLLE [KRT14_Y415_Y415H]
inactive: [1] 0.526 | [2] 0.429 | [3] 0.593 | [4] 0.513 | [5] 0.446 | [6] 0.532

TTGGFYSFGGG [KRT24_Y120_A115T_YF]
inactive: [1] 0.856 | [2] 0.874 | [3] 1.15 | [4] 0.693 | [5] 1.02 | [6] 0.785

DCLASYLDKVR [KRT10_Y160_R156C]
inactive: [1] 1.07 | [2] 1.04 | [3] 1.03 | [4] 0.891 | [5] 0.954 | [6] 1.05

EAEALYQTTFQ [KRT73_Y325_K328T]
inactive: [1] 0.697 | [2] 0.699 | [3] 0.784 | [4] 0.677 | [5] 0.904 | [6] 0.851

WYQTKYEELQI [KRT6B_Y360]
inactive: [1] 1.14 | [2] 1.51 | [3] 2.07 | [5] 2.89 | [6] 1.46
active: [4] 8.24

TIEDSYRKQVV [KRAS_Y40]
inactive: [1] 0.512 | [2] 0.673 | [3] 0.648 | [4] 0.501 | [5] 0.754 | [6] 0.706
